The supplement of paper PMC4166925
± gives the standard deviation of the averaged measurements. Whole data set: some 33,000 sequences, median “E-score (dimensionless, -0.5 to 0.5)” near -0.049, cut for the highest 2% near 0.37. Some of the results follow.

tested on: T1, PmTbr T-box DNA-binding domain (GST fusion); assay: PBM E-score of 8-mer (E-score (dimensionless, -0.5 to 0.5)); Tbr is Tbrain of the sea star Patiria miniata (Pm) or the sea urchin Strongylocentrotus purpuratus (Sp); higher = stronger binding preference; most listed sequences are background and not binding sites; settings: the construct has about 5 more residues each side
T1 sequence: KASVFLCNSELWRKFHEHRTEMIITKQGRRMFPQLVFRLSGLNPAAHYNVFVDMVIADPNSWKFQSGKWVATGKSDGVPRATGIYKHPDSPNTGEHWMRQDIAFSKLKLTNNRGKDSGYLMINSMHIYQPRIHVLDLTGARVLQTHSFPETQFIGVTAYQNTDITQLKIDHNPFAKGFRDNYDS
Procedure, shortened: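 Primer extension turned Universal Agilent oligonucleotide arrays double-stranded. They were incubated with 200 nM protein in PBS (pH 7.5); the protein was a GST-fused Tbr T-box DNA-binding domain expressed in BL21 E. coli at 20 °C and purified on glutathione. Every ungapped 8-mer was scored from the scanned, quantified probe intensities, and the Universal PBM Analysis Suite gave each an enrichment E-score averaged over duplicate arrays.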

Sequence	PBM E-score of 8-mer
AAGTACCT	-0.33 ± 0.006
CGAAATTC	0.0215 ± 0.011
ACGATCAC	0.0556 ± 0.071
ATGCTGGC	-0.051 ± 0.074
CGGAAATA	-0.08127 ± 1.4e-05
AACTGCTT	0.011 ± 0.058
AATAGCCC	-0.1898 ± 0.001
ATTGGTTA	-0.113 ± 0.039
ACGCCGCG	0.0658 ± 0.049
TACGCGGA	-0.235 ± 0.0042
AGAATGTA	-0.181 ± 0.013
CCCGAACA	-0.172 ± 0.03
GGTTGCAA	0.172 ± 0.0051
CCTTCAGC	-0.0895 ± 0.022
CCGCGGAG	-0.00122 ± 0.011
CAGACATA	0.111 ± 0.023
AAACGGCA	0.0707 ± 0.068
ACTAGCGA	0.103 ± 0.036
ATACATCA	-0.0384 ± 0.026
GTCTTCAA	-0.0747 ± 0.03
GGGCTCAA	-0.182 ± 0.072
CAGAGGTA	-0.318 ± 0.012
GGATCCAC	-0.0343 ± 0.033
GATGCCGC	-0.0448 ± 0.13
CTAACACC	0.4751 ± 0.004

Sequence	PBM E-score of 8-mer
CGAGCTCG	-0.121 ± 0.09
GGCGTAGA	-0.0472 ± 0.11
AATTCGCA	0.339 ± 0.032
GATCACGA	-0.0688 ± 0.047
CGCGTAGC	0.101 ± 0.0029
CCCTACGG	-0.107 ± 0.04
GACACTAC	0.288 ± 0.031
ATACTCGC	0.118 ± 0.008
CTAGAATA	0.00046 ± 0.034
GAGCACTA	-0.0401 ± 0.011
ATCGCAAA	0.11 ± 0.085
GCTAATCA	0.054 ± 0.0042
AAGATGGA	-0.228 ± 0.058
AGCGTTGG	0.112 ± 0.048
GCTGCCCA	-0.0746 ± 0.1
TATTGCCA	-0.026 ± 0.033
GCGCTGGA	-0.0335 ± 0.037
ATTCGCTC	-0.0943 ± 0.028
CGAAGTCA	0.00257 ± 0.055
GATGTTCC	-0.155 ± 0.013
ACAGCTCC	0.194 ± 0.055
TACAATCA	-0.16 ± 0.02
AAATGTAG	-0.144 ± 0.071
ATTCGTAC	-0.051 ± 0.066
AAGAGATA	0.0142 ± 0.029

Sequence	PBM E-score of 8-mer
GATCGACA	0.275 ± 0.023
AATCTTGT	-0.00217 ± 0.087
GTCGCAGA	-0.0531 ± 0.0046
ACCCTCCC	0.0189 ± 0.0043
CCATTTGA	-0.252 ± 0.017
CGTGCTAA	0.378 ± 0.021
TCTTCGCA	0.286 ± 0.051
CTTCAGTC	-0.0457 ± 0.017
AACGAAGG	-0.219 ± 0.07
TACTCCAA	0.0525 ± 0.027
ACGTCAAC	0.0351 ± 0.053
GATCAGGC	-0.1781 ± 0.00018
ATTGAGTG	0.161 ± 0.078
TCCAAGGA	-0.3385 ± 0.0028
AGTCTAGA	-0.238 ± 0.057
ATATCTGC	-0.0339 ± 0.014
ACGATAAA	0.122 ± 0.051
ACGTCCCT	-0.252 ± 0.034
GTTGACTA	0.155 ± 0.052
ACATGTAA	0.0256 ± 0.022
GCCTTGGA	-0.126 ± 0.021
AACTCTCT	-0.0883 ± 0.024
AAAGTAGG	-0.07 ± 0.0051
AGAGGCTG	-0.151 ± 0.025
CTCAAACA	-7.5e-05 ± 0.056

Sequence	PBM E-score of 8-mer
TAGGCCCA	-0.256 ± 0.032
ACTGCCCG	-0.05 ± 0.0071
ATGTGAAC	0.175 ± 0.039
AGCGCTTA	0.213 ± 0.018
ACGACAAC	0.196 ± 0.0092
TAAATTAA	-0.18 ± 0.074
CCTTGATA	-0.0112 ± 0.1
ATTGCACC	0.257 ± 0.0088
ATCTAGCA	0.227 ± 0.027
GGCGCTTA	-0.0559 ± 0.037
ATATTAAT	-0.24 ± 0.085
CACCATTA	0.0602 ± 0.064
ACTGCTTA	-0.0719 ± 0.035
ATATGACG	0.104 ± 0.019
CATCTCGG	-0.165 ± 0.025
AGAGCCAG	0.0137 ± 0.042
ACCACAGA	-0.158 ± 0.048
AAATCGTC	0.139 ± 0.023
AACCACCA	-0.0955 ± 0.055
AACGCTTC	0.0357 ± 0.13
CTAAAGAA	0.00353 ± 0.015
ACCGCGGG	-0.0886 ± 0.011
AGCCGCAT	-0.0864 ± 0.0094
ATGAAAAG	0.0999 ± 0.082
CTCTAGAC	-0.104 ± 0.013

Sequence	PBM E-score of 8-mer
ACATACTA	-0.0706 ± 0.017
ACTACCGG	-0.0106 ± 0.025
GCAATGGA	-0.158 ± 0.028
AAACAAGT	-0.0555 ± 0.011
CTGGGGCC	-0.217 ± 0.052
AGCCCCGC	-0.0835 ± 0.072
AAGTGGCA	0.356 ± 0.011
GATGCCCC	-0.112 ± 0.044
TCGCAACA	0.265 ± 0.0076
ATTGACCA	-0.26 ± 0.045
CTGCCTCA	-0.0422 ± 0.12
GATTAGCA	0.126 ± 0.014
GTTAAACA	0.00153 ± 0.043
CGCTAATA	0.239 ± 0.0096
ACCGTGAT	0.1 ± 0.028
ACCTGACG	0.221 ± 0.063
ACCGGGTG	0.115 ± 0.029
GCACCCCC	0.226 ± 0.047
CTGACCAA	-0.304 ± 0.049
AGCAACCT	-0.0154 ± 0.04
GGGGAACC	-0.178 ± 0.035
TGGTCACA	0.257 ± 0.053
AGCAGTAC	-0.154 ± 0.02
CTCTCGTA	-0.0547 ± 0.0012
ACCACGTC	-0.0168 ± 0.081

Sequence	PBM E-score of 8-mer
ACCACATC	-0.0561 ± 0.029
ATGTTGAG	-0.0139 ± 0.007
AACTTTGG	-0.0601 ± 0.034
GCAATTCC	0.0588 ± 0.022
AACAGGTG	0.4042 ± 0.00081
CCAAATCG	0.0834 ± 0.071
CCTCAGAC	-0.101 ± 0.045
ACAATACC	-0.103 ± 0.05
GGGGTACA	-0.298 ± 0.0097
TACGCATA	-0.15 ± 0.092
CTTGTCGC	0.277 ± 0.012
TATCGAAA	0.0388 ± 0.023
ACTGAGAT	-0.121 ± 0.011
AGGGAACA	-0.263 ± 0.028
AACTAAAG	-0.0861 ± 0.047
AAATATGG	-0.199 ± 0.047
CTTGGGCC	-0.148 ± 0.032
ATCAAGGG	-0.0226 ± 0.041
CAGGATTA	-0.117 ± 0.098
GTATCAAC	0.0828 ± 0.072
ACGACGAT	-0.0363 ± 0.012
CGAGCACC	-0.0536 ± 0.12
CCTGACTC	-0.198 ± 0.029
CATCTTCA	-0.0506 ± 0.053
CAGAGATG	-0.121 ± 0.019

Sequence	PBM E-score of 8-mer
AGACCTTC	-0.269 ± 0.022
GCCCATCA	-0.163 ± 0.056
AACTGAAA	0.04041 ± 0.00021
CTCTCGCA	0.253 ± 0.0067
CCCAAGAC	-0.166 ± 0.062
GCGCCCGC	0.024 ± 0.059
GCGATCCC	0.156 ± 0.074
CCAGCGCG	0.108 ± 0.018
CATCGGTC	-0.225 ± 0.058
GCAAGAAC	-0.077 ± 0.039
TCAATTGA	-0.0679 ± 0.029
CAGAAATA	-0.135 ± 0.074
CTCCGAAG	0.0723 ± 0.057
AACGGCAC	0.167 ± 0.0065
GAGCTCGA	-0.143 ± 0.031
ATGCCCTC	-0.198 ± 0.051
CCTTTGTC	0.166 ± 0.0072
ATCATCGC	0.0827 ± 0.033
CTACAGAA	0.0244 ± 0.029
CCCTTGTA	-0.116 ± 0.049
TCCGGGAA	-0.24 ± 0.05
CAGAGATC	-0.156 ± 0.043
